In all, about 310,000 compounds went through this assay and about 2,200 (0.71%) showed an effect of 50% or more. The effect is printed as a negative number. The list shows a part of the results.
Target: human ether-à-go-go-related gene (hERG) potassium channel (human, UniProt Q12809)
Test: primary screen, population patch clamp on CHO cells stably expressing hERG

Chain of human ether-à-go-go-related gene (hERG) potassium channel (Q12809 whole entry, looked up): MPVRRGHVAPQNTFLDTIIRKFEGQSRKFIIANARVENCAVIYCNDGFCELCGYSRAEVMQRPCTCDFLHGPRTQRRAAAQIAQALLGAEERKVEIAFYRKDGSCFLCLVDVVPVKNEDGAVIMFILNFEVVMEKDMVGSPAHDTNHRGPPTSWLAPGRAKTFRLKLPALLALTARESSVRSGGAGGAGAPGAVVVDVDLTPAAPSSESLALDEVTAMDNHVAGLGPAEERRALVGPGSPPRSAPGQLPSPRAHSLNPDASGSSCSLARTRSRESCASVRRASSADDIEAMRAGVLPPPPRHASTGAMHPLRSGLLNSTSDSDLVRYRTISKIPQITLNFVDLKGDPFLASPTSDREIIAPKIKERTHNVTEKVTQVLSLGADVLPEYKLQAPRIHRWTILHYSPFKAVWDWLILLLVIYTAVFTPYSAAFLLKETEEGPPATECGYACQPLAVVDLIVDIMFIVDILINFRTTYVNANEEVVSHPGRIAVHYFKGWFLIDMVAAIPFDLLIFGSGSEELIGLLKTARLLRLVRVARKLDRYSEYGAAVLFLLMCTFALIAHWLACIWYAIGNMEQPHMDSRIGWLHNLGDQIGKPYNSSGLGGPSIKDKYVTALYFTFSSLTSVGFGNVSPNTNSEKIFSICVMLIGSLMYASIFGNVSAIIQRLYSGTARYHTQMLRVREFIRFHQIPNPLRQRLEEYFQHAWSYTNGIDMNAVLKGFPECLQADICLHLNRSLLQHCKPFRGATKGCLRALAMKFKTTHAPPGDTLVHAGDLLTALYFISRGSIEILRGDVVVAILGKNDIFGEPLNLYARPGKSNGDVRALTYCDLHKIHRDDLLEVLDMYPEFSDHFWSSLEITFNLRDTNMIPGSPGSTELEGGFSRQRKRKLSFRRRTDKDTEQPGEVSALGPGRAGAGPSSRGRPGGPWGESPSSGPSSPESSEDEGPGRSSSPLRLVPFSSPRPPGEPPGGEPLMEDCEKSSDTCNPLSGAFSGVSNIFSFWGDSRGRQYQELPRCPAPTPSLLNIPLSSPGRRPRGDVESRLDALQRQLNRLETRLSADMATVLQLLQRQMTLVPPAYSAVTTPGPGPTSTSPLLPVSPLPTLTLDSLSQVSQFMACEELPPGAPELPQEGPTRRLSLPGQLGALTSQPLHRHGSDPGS

Structure (SMILES) | hERG current change (%, negative = inhibition) at 1uM [%]
COc1ccc(CNCC(O)(c2ccccc2)c2ccc(F)cc2)cc1 (stereo not drawn) | -45.9
CCOc1ccc2nc(N3CCC(C(=O)N4CCN(c5ccccn5)CC4)CC3)sc2c1 | -17.4
CCOc1cc(C(=O)NCCOC)ccc1OC | 4.99
Cc1ccc(C(=O)COC(=O)c2cccc(NC(=O)c3ccc([N+](=O)[O-])cc3[N+](=O)[O-])c2)cc1 | 13.6
CCc1nnc(N/N=C/c2ccccc2Cl)n1N.Cl | 11.1
Cc1cccc(C(C)C)c1NC(=O)C1CN(S(=O)(=O)c2ccccc2)CCN1S(=O)(=O)c1ccccc1 (stereo not drawn) | 7.22
COc1ccccc1CCNC(=O)CCNS(=O)(=O)c1ccc(NC(C)=O)cc1 | 19.7
Cc1cc(OC(=O)C(c2ccccc2)c2ccccc2)c([N+](=O)[O-])c(=O)[nH]1 | 17.2
Nc1nc2nccc(-c3ccccn3)n2n1 | 6.42
O=C1COc2ccc(N3C(=O)c4ccccc4C3=O)cc2N1 | 10.5
CCC(=O)Nc1cccc(-c2cn3ccccc3n2)c1 | 8.01
Cc1cccnc1NC(=S)NCc1ccco1 | -0.423
COc1cc(OC)cc(-c2n[nH]c(=S)n2-c2ccc3c(c2)OCO3)c1 | 11.3
COc1ccc(C(CNC(=O)Nc2ccc(Cl)cc2)N2CCN(C)CC2)cc1 (stereo not drawn) | 14.3
Cc1ccc(-c2noc(CNC(=O)c3ccoc3C)n2)cc1 | 10.7
Cc1ccc(C(=O)C[n+]2cc(-c3ccc(C)cc3)n3c2CCCCC3)cc1.[Br-] | -18.2
CCCc1cc(=O)[nH]c(SCC(=O)N2C(C)CCCC2C)n1 (stereo not drawn) | 8.35
Cc1ccc(C(=O)O)cc1S(=O)(=O)NCC1CCCO1 (stereo not drawn) | 6.72
CC(C)Cn1c(N)c(C=O)c(=O)[nH]c1=O | 7.91
COC(=O)c1ccc(C2NC(=O)NC(C)=C2C(=O)N(C)C)cc1 (stereo not drawn) | 5.68
CCOC(=O)C1=C(C)NC2=C(C(=O)CCC2)C1c1ccc(N(C)C)cc1 (stereo not drawn) | 6.74
CCCn1c(SCC(=O)NC2CCCC2)nnc1-c1ccccn1 | 15.4

Structure (SMILES) | hERG current change (%, negative = inhibition) at 1uM [%]
COc1ccccc1N1C(=O)NC(=O)C(CCc2ccncc2)(CCc2ccncc2)C1=O | -5.11
O=C(O)COc1ccc(Br)cc1C(c1c(C(=O)O)[nH]c2ccccc12)c1c(C(=O)O)[nH]c2ccccc12 | 19.7
O=C(Cn1ncn2c(cc3ccccc32)c1=O)NCCC1=CCCCC1 | 12.5
COc1ccccc1CNC(=O)COC(=O)c1ccc(C)s1 | 12.2
FC(F)(F)c1cc(C(F)(F)F)c2ccc(N3CCOCC3)nc2n1 | 13.3
CC1CCCN(Cc2nc3c(c(=O)n(C)c(=O)n3C)n2Cc2c(F)cccc2Cl)C1 (stereo not drawn) | 8.62
O=C(c1ccc2c(c1)OCO2)C1CCCN(Cc2cn[nH]c2-c2cccc(F)c2)C1 (stereo not drawn) | -42.7
CCCCC(=O)N/N=C/c1c(O)n(CCc2ccc(OC)c(OC)c2)c(=O)[nH]c1=O | 4.85
C/C(NC(=O)c1cccc(F)c1)=C1/C(=O)C[C@@H]2[C@H]1C2(C)C | 10.6
CCOC(=O)c1c(C)c(C(=O)NCCCOC(C)C)c(C)n1C | 2.8
COc1cccc(-n2c(=O)c3c(C)c(C(=O)N(C)C)sc3n(CC(=O)NCCc3ccc(OC)c(OC)c3)c2=O)c1 | 5.15
COc1ccc(NC(=O)CSc2cc(C)ccc2C)cn1 | 9.89
CN1CCN(S(=O)(=O)c2cccc(C(=O)Nc3cc(C(N)=O)cc(C(N)=O)c3)c2)CC1 | 11.7
Cc1ccc(S(=O)(=O)N2CCOCC2)cc1NC(=O)CSc1nnnn1C1CCCC1 | 4.17
CCOc1ccc2oc(C(=O)NN3C(C)CCCC3C)c(C)c2c1 (stereo not drawn) | 5.61
CCOC(=O)c1sc2nc(C(C)C)c3c(c2c1N)CCC3 | 2.49
CCCn1c(=O)[nH]c(=O)c2c1nc(-c1ccc(OC(F)F)cc1)n2CCN1CCOCC1 | -6.58
CNC(=S)NCc1ccc2[nH]c(C)cc2c1 | 7.26
Nc1nc(Cl)nc2c1ncn2[C@H]1C[C@H](O)[C@@H](CO)O1 | 15.7
COc1cccc(C2CC(c3cccc(OC)c3)n3nc(N)nc3N2)c1 (stereo not drawn) | 1.52
CC(C)CNc1nc(N)c([N+](=O)[O-])c(NCc2ccccc2)n1 | 11.8
CC(=O)Nc1ccc(N2C(=O)CC(Sc3nc4ccccc4s3)C2=O)cc1 (stereo not drawn) | 14.6

Structure (SMILES) | hERG current change (%, negative = inhibition) at 1uM [%]
Br.O=C(Cn1c(NCCCO)nc2ccccc21)c1ccc(F)cc1 | -0.355
CCCN(C(=O)CSc1n[nH]c(-c2ccc(OC)cc2)n1)c1c(N)n(Cc2ccccc2)c(=O)[nH]c1=O | 20.1
CC(NC(=O)C1CCCO1)c1ccccc1 (stereo not drawn) | 9.66
Cc1nn(-c2ccccc2)c2sc(-c3n[nH]c(=S)o3)cc12 | 11.9
CC1(C)Cc2c(ccc3ccccc23)C(=O)N1 | 10.8
COc1ccccc1CCNC(=O)c1ccc(OC)c(OC2CCN(C(C)C)CC2)c1 | -4.22
O=C(CC(=O)Nc1cccnc1)Nc1cccnc1 | 15
CCCn1c(S(=O)(=O)O)nc2ccccc21 | 12.5
O=C1CCc2cc(S(=O)(=O)Nc3ccc(F)cc3)ccc2N1 | 16.3
CCCCCCCCNC(=O)c1ccc(C)cc1 | 14.9
COC(=O)c1cc(S(=O)(=O)NCc2ccc(S(N)(=O)=O)cc2)oc1C | 13.7
COc1ccc(CNC(=O)CC2C(=O)NCCN2C2Cc3ccccc3C2)cc1 (stereo not drawn) | -4.37
COc1ccc(NC(=O)CN(C)C(=O)CCC(=O)c2ccc(C)cc2)cc1 | 4.81
CC1CCN(C(=O)CSc2nnc(CN3CCOCC3)n2-c2ccccc2)CC1 | 12.6
COc1ccc(NC(=O)C2C3C=CC4(O3)C2C(=O)N(CCCN2CCCCC2)C4C(=O)NC2CCCC(C)C2C)cc1 (stereo not drawn) | 13.2
Cc1[nH]c2ccc3c(ncn3CCC#N)c2c1C | 6.7
Cc1ccc(C(=O)Nc2sc(Cc3ccc4c(c3)OCO4)c(C)c2C(N)=O)cc1 | -1.81
CCCC1O[C@@H]2CC3C4CCC5=CC(=O)C=C[C@]5(C)C4C(OC(C)=O)C[C@]3(C)[C@]2(C(=O)COC(C)=O)O1 (stereo partly drawn) | 6.79
O=C(N/N=C/c1cccc2ccccc12)c1n[nH]c2c1CCCC2 | 2.66
Nc1nc(Cl)cc(Oc2ccc([N+](=O)[O-])cc2)n1 | 12.7
Cc1ccc(NC(=O)C2CCCN(S(=O)(=O)c3c(C)noc3C)C2)nc1 (stereo not drawn) | 0.366
COc1ncccc1C(=O)N1CCCC(N2CCN(c3cccc(Cl)c3)CC2)C1 (stereo not drawn) | 5.55

Structure (SMILES) | hERG current change (%, negative = inhibition) at 1uM [%]
CC(NC(=O)c1ccncc1)c1ccccc1 (stereo not drawn) | 15
Cn1ccnc1C(=O)c1ccc(N)cc1 | 15.9
Cc1ccc(NC=C(S(=O)(=O)c2ccccc2)S(=O)(=O)c2ccccc2)cc1 | 3.59
Cc1nnc(SCC(=O)c2cc(C)n(C3CC3)c2C)s1 | -3.57
COc1cccc(C2(O)CCN(C(=O)C(C)C)CC2)c1 | 4.46
CCOc1cc(/C=C2\CN(CC)C/C(=C\c3ccc(O)c(OCC)c3)C2=O)ccc1O.Cl | -2.77
O=C(NCc1nnc(SCc2ccc(C(F)(F)F)cc2)n1-c1ccccc1)C12CC3CC(CC(C3)C1)C2 | 8.2
Nc1nc2n(n1)C(=O)CC(c1ccc(Cl)cc1)N2 (stereo not drawn) | 12.9
COC(=O)Nc1ccc(N=C(N)N[N+](=O)[O-])cc1 | 11.9
CN1CCN(C(=O)C2=C[C@@H](C3CC3)C[C@@H](OCc3ccc(CO)cc3)O2)CC1 | 17.7
CC(OC(=O)CCCN=C1NS(=O)(=O)c2ccccc21)C(=O)Nc1ccccc1[N+](=O)[O-] (stereo not drawn) | 10.5
CC1(C)CC(=O)C2=C(C1)NC(SCC(N)=O)=C(C#N)C21CCCCC1 | 11.9
COc1cccc(N2CCN(Cc3ccsc3)CC2)c1 | 5.85
COc1cccc2cc(C(=O)NCc3ccco3)c(=Nc3ccc(C(=O)O)cc3)oc12 | -1.82
O=C(CCn1c(=O)oc2ccccc21)Nc1cccc(Cl)c1 | 1.71
O=C(Oc1ccc2ccccc2c1Cl)N1CCCC1 | 3.62
COc1cc2c(cc1OC)C1(CCCC1)CNC2c1cccc([N+](=O)[O-])c1 (stereo not drawn) | -10.2
CCOc1ccc2ccccc2c1C(=O)N[C@@H]1C(=O)N2[C@@H]1SC(C)(C)[C@@H]2C(=O)[O-].[Na+] | 8.13
CCOC(=O)C1CCCN(C(=O)c2sc3nc(C)nc(N4CCOCC4)c3c2C)C1 (stereo not drawn) | 9.16
CCC(=O)N1CCc2cc(S(=O)(=O)CCC(=O)NCCc3ccc(S(N)(=O)=O)cc3)ccc21 | 15.7
O=C(O)CNS(=O)(=O)c1cc(Cl)c(Cl)cc1Cl | 13
